This is one part of the list.
B1: PhoQ; a variant is named by its letters at X, in order, P23837 (parent)
chain: MKKLLRLFFPLSLRVRFLLATAAVVLVLSLAYGMVALIGYSVSFDKTTFRLLRGESNLFYTLAKWENNKLHVELPENIDKQSPTMTLIYDENGQLLWAQRDVPWLMKMIQPDWLKSNGFHEIEADVNDTSLLLSGDHSIQQQLQEVREDDDDAEMTHSVAVNVYPATSRMPKLTIVVVDTIPVELKSSYMVWSWFIYVLSANLLLVIPLLWVAAWWSLRPIEALAKEVRELEEHNRELLNPATTRELTSLVRNLNRLLKSERERYDKYRTTLTDLTHSLKTPLXXLQXXLRSLRSEKMSVSDAEPVMLEQISRISQQIGYYLHRASMRGGTLLSRELHPVAPLLDNLTSALNKVYQRKGVNISLDISPEISFVGEQNDFVEVMGNVLDNACKYCLEFVEISARQTDEHLYIVVEDDGPGIPLSKREVIFDRGQRVDTLRPGQGVGLAVAREITEQYEGKIVAGESMLGGARMEVIFGRQHSAPKDE

Variants of: B1
Assay: enrichment ratio after two sorts for PhoP signalling (ratio (wild type AVST 3.29)); higher = more functional
Settings: with PhoP (E. coli)

Variant | enrichment ratio
GMPD | ≤ 0.25
LCQF | ≤ 0.25
KQYK | ≤ 0.25
VSAM | 7.08
IKVL | ≤ 0.25
MQIF | ≤ 0.25
TPNT | ≤ 0.25
PKPK | ≤ 0.25
GTIV | 2.97
HSWQ | ≤ 0.25
ILVE | ≤ 0.25
HAEK | ≤ 0.25
GVLK | 8.59
EALI | 1.98
GSHM | 0.822
RDPQ | ≤ 0.25
SHEE | ≤ 0.25
GIKR | ≤ 0.25
SNVP | ≤ 0.25
VQHP | ≤ 0.25
IDIM | ≤ 0.25

Variant | enrichment ratio
ENLV | ≤ 0.25
ALYF | ≤ 0.25
IQKC | ≤ 0.25
HMCC | ≤ 0.25
MKYR | ≤ 0.25
DPMG | ≤ 0.25
QFQD | ≤ 0.25
FDDS | ≤ 0.25
QVLC | ≤ 0.25
GKVA | ≤ 0.25
IDEF | ≤ 0.25
SKWE | ≤ 0.25
LICM | ≤ 0.25
PMGK | ≤ 0.25
LCNH | ≤ 0.25
IHFP | ≤ 0.25
WIFT | ≤ 0.25
LKAF | ≤ 0.25
FTTD | ≤ 0.25
FFKT | ≤ 0.25
LGLV | 6.95

Variant | enrichment ratio
KTNP | ≤ 0.25
NCGA | ≤ 0.25
HWHW | ≤ 0.25
YPPG | ≤ 0.25
PPPY | ≤ 0.25
IWVM | ≤ 0.25
RLSS | ≤ 0.25
DFYA | ≤ 0.25
SHAM | 8.88
SGGM | 8.79
RQPL | ≤ 0.25
IEVE | ≤ 0.25
VWVG | ≤ 0.25
ETGT | ≤ 0.25
VQKH | ≤ 0.25
YQRQ | ≤ 0.25
FPFT | ≤ 0.25
FSMY | 1.09
TVEI | ≤ 0.25
ATGY | ≤ 0.25
LDSV | ≤ 0.25

Variant | enrichment ratio
NKNQ | ≤ 0.25
PRFY | ≤ 0.25
VGWY | ≤ 0.25
SKNI | ≤ 0.25
APTK | ≤ 0.25
AESH | 1.31
KYMP | ≤ 0.25
PFNF | ≤ 0.25
CSTY | ≤ 0.25
FPTI | ≤ 0.25
GVIP | ≤ 0.25
LDDK | ≤ 0.25
RCQS | ≤ 0.25
TDWH | 3.25
KVRW | ≤ 0.25
ADSN | ≤ 0.25
DSCD | ≤ 0.25
SYPL | ≤ 0.25
NSEW | ≤ 0.25
DFMR | ≤ 0.25
DNCL | ≤ 0.25

Source: a collection of fitness landscapes (doi:10.1126/science.1257360)
